# Experimental data published in article PMC11696576, “Next generation thiazolyl ketone inhibitors of cytosolic phospholipase A2 α for targeted cancer therapy” (Nature Communications, 2025).
# Tests used:
# [1] = tested on: PBMCs; test: viability of PBMCs (CTG and propidium iodide exclusion); type: cell-based, human; settings: PBMC 72H; 2 µM; rep1-5; listed as AVX420
# Procedure: (§1) Propidium iodide exclusion was used to assess cell death by flow cytometry. After treatment, the cells were washed once with PBS and stained with 1.4 μg/mL propidium iodide (PI) for 5 min before quantification of PI negative and positive cells using a CytoFLEX flow cytometer (California, United States). An example of the gating strategy to assess PI staining can be found in Fig. S8c. […]
# cells. a. CTG assays were used to assess viability of PBMCs isolated from human blood after treatment with vehicle control (DMSO) or AVX420 at the indicated doses for either (i) 24 hours or (ii) 72 hours. Data are the mean ±stdev of 4 or 5 biological replicates respectively. b. The propidium iodide exclusion assay was used to assess vi-ability of ungated PBMCs treated with AVX420 at the indicated doses for 24 hours .
# (§2) Data are the mean ±stdev from 8 biological replicates (1-16 µM) and 5 biological rep- […]
# (§3) iodide exclusion in CD3+ lymphocytes (T-cells). Cells appearing in the bottom right quadrant are PI-negative (live) T-cells while cells in the top right quadrant are PI-posi- […]
# (§4) (1 picture or pasted object on this page, not shown here)
# [2] = tested on: CD3+ T-cells; test: viability of healthy T-cells, propidium iodide exclusion; type: cell-based; settings: Figure 6c, listed as AVX420
# Procedure: Data are the mean ± stdev of 3 biological replicates. […] Data are the mean ± stdev of 3 biological replicates.
# as §1
# The propidium iodide exclusion assay was used to assess vi-ability of ungated PBMCs treated with AVX420 at the indicated doses for 24 hours .
# as §2, §3, §4
smiles,measurement,setting,value
CCCCCCCOc1ccc(OCC(=O)c2nc(C(=O)OC)cs2)cc1 [GK420],PBMC viability relative to 0 µM = 100 (Figure S8a),[1],"111, 89, 93 (2×), 105 [columns of one line]"
same,PI Negative,[2]; 0.5 µM,"97 (2×), 98, 96, 91, 89 [columns of one line]"
same,PI Negative,[2]; 1 µM,"96, 98, 97 (2×), 91, 89 [columns of one line]"
same,PI Negative,[2]; 4 µM,"97 (2×), 98, 95, 96, 90, 89, 94 [columns of one line]"

# Some entries of the source have several records that differ or are many. The list is limited to them. An entry can have further records. Values given together seem to repeat one measurement; one of them may be the mean. Additions like (4×) stand for listed records that agree.
